# Results reported in PubChem BioAssay AID1347120 (National Center for Advancing Translational Sciences (NCATS), 2019).
# The whole screen tested about 390,000 compounds, of which about 930 (0.24%) were called active. This list was built around the results that the source calls inconclusive (neither active nor inactive); the mix of calls is not that of the screen. Calls come from the whole dose curve; as a rule, active = well fitted activation curve with a large enough effect; inconclusive = small, poorly fitted or top-dose-only effect; inactive = no such curve, though single readings can be large or run the other way. Potencies beside an inconclusive call are fits to weak or partial responses and may not hold up.
# Assay: qHTS for Suppressors of FUS Proteinopathy: Primary screen using FUS-linked yeast assay; note: nearly all actives have a fitted effect of over 55% in size;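 for growth rescue (activation): plate controls were DMSO vehicle for no effect and reference control for full effect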
# Details: S. cerevisiae FUS-expressing, OD600, 24 h; Potency: growth rescue; growth rescue (activation): at 76.6 µM (top of the series)
# Method in brief: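 Yeast expressing FUS under galactose induction, OD 0.005 in 2% galactose medium; compounds in a dilution series, 24 h at 30C. Growth rescue by absorbance at 600 nm; CP55940 positive control, DMSO negative.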
# Potency is the fitted concentration of half-maximal effect; tags give direction and shape of the fitted curve.
SMILES,Potency,growth rescue (activation)
CC(C)(C)C1CCc2c(sc(N)c2C(N)=O)C1 (stereo not given),"inconclusive: 35.5 µM [activator, single point]",
CCCCc1ccc(NS(=O)(=O)N(C)C)cc1,,inconclusive: 31% [activator]
COC(=O)/C=C1/SC(=NC(=O)c2ccc(OC)cc2)NC1=O,"inconclusive: 3.16 µM [activator, full curve]",
Cn1c(-c2cc3ccc(OC(=O)C(C)(C)C)cc3oc2=O)nc2ccccc21,"inconclusive: 39.8 µM [activator, partial curve, poor fit]",
O=C(NCc1ccc(F)cc1)C1CCCN(c2nc3ccccc3o2)C1 (stereo not given),inactive,
CCCCCCCCN1C(=O)[C@H](CC(=O)NCc2ccc(OC)c(OC)c2)C[C@@]2(C(=O)OC)CCCCC=C12,"inconclusive: 14.1 µM [activator, partial curve, poor fit]",
COc1ccc(OCc2n[nH]c(=S)o2)cc1,"inconclusive: 7.08 µM [activator, single point]",
CCOC(=O)/C(=N/Nc1ccc(OC)cc1)N1CCCc2ccccc21,inactive,
COc1cc(Nc2nc(SCc3cccc(Cl)c3)nc3ccccc23)cc(OC)c1,inactive,
COC(=O)c1cc(C(=O)OC)n(Cc2ccc(F)cc2)c1C,inactive,
Cc1ccc(S(=O)(=O)N(C)C(C)CCc2ccco2)cc1 (stereo not given),"inconclusive: 50.1 µM [activator, single point]",
O=C(COCc1cc(-c2cccs2)on1)NCc1ccccc1Cl,inactive,
Cn1c(=O)oc2cc(S(=O)(=O)CCC(=O)NCCc3ccccc3)ccc21,inactive,
CC(C)Cn1c(N)c(C(=O)COC(=O)c2ccc(O)cc2O)c(=O)n(C)c1=O,"inconclusive: 28.2 µM [activator, single point]",
Cc1ccc(Cl)cc1NC(=O)C(NS(=O)(=O)c1cccc2nsnc12)c1ccccc1 (stereo not given),"inconclusive: 25.1 µM [activator, partial curve]",
CC(C)(C)OC(=O)/C=C/[C@H](CCCCl)Sc1ccc(C(C)(C)C)cc1,"inconclusive: 39.8 µM [activator, single point]",
CCOc1ccc(-n2c(=S)sc3c(=O)[nH]c(SCC(=O)NC(C)CC)nc32)cc1 (stereo not given),"inconclusive: 28.2 µM [activator, single point]",
CCCNC(=O)c1ccc(N2CCC3(CC2)CC(c2ccccc2)=NO3)c(NC(=O)c2ccco2)c1,"inconclusive: 35.5 µM [activator, partial curve, poor fit]",
Cc1cc(C)cc(OCC(=O)NNC(=O)c2ccccn2)c1,inactive,
COc1cc(C)ccc1S(=O)(=O)n1nc(C)cc1C,inactive,
